Lines with a small IC50 respond at low doses; a limit (>, <) means that the fit lies beyond the doses tested. For AUC the same curve is integrated over the 256-fold range of doses and scaled to a fraction; it is 1 without any effect and falls as sensitivity rises. For part of these data: A top dose marked as inferred comes from the curve model; the source does not state it. For part of these data: Where an entry number is given, a second screen of the drug exists; the two often differ.
What was measured:
Assay in all cases: Viability of human cancer cell lines after 72 h of drug (GDSC screen)
5-Fluorouracil = compound: O=c1[nH]cc(F)c(=O)[nH]1 [5-Fluorouracil]; conditions: top dose 32 µM; top dose inferred
Procedure: (§1)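 Human cancer cell lines in 384-well plates, medium with 10% serum, drug for 72 h over a 256-fold dose range (nine 2-fold or five 4-fold steps up to the top dose). Adherent lines were fixed and stained with the nucleic acid dye Syto60, suspension lines read with resazurin; signal relative to control wells, capped at 0 and 100%. One two-parameter sigmoid per drug and line, fitted in a mixed model over all curves with the slope shared within a line.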

JNK-9L = compound: Fc1cc(-c2ccnc(Nc3ccc(-n4cnc(N5CCOCC5)n4)cc3)n2)cc(N2CCOCC2)c1 [JNK-9L]; conditions: top dose 5.12 µM; top dose inferred
Procedure: as §1

CUDC-101 = compound: C#Cc1cccc(Nc2ncnc3cc(OC)c(OCCCCCCC(=O)NO)cc23)c1 [CUDC-101]; conditions: top dose 5.12 µM; top dose inferred
Procedure: as §1

OSU-03012 = compound: NCC(=O)Nc1ccc(-n2nc(C(F)(F)F)cc2-c2ccc3c(ccc4ccccc43)c2)cc1 [OSU-03012]; conditions: top dose 16 µM; top dose inferred
Procedure: as §1

AC220 = compound: CC(C)(C)c1cc(NC(=O)Nc2ccc(-c3cn4c(n3)sc3cc(OCCN5CCOCC5)ccc34)cc2)no1 [AC220]; conditions: top dose 1.024 µM; top dose inferred
Procedure: as §1

RDEA119 = compound: COc1cc(F)c(F)c(Nc2ccc(I)cc2F)c1NS(=O)(=O)C1(C[C@H](O)CO)CC1 [RDEA119]; conditions: top dose 5 µM, top dose inferred
Procedure: as §1

QS11 = compound: OC[C@H](Cc1ccccc1)Nc1nc(Oc2ccc3c(c2)CCC3)nc2c1ncn2Cc1ccc(-c2ccccc2)cc1 [QS11]; conditions: top dose 10.24 µM
Procedure: as §1

Row | Cell Line | AUC (5-Fluorouracil) | IC50 (5-Fluorouracil) [µM] | AUC (JNK-9L) | IC50 (JNK-9L) [µM] | AUC (CUDC-101) | IC50 (CUDC-101) [µM] | AUC (OSU-03012) | IC50 (OSU-03012) [µM] | AUC (AC220) | IC50 (AC220) [µM] | AUC (RDEA119; screen: GDSC drug entry 1526) | IC50 (RDEA119; screen: GDSC drug entry 1526) [µM] | AUC (QS11) | IC50 (QS11) [µM] | AUC (RDEA119; screen: GDSC drug entry 1014) | IC50 (RDEA119; screen: GDSC drug entry 1014) [µM]
1 | COLO-792 (melanoma, adherent) | 0.975 | > 32 | 0.902 | > 5.12 | 0.818 | 2.83 | 0.984 | > 16 | 0.978 | > 1.02 | 0.537 | 0.394 | 0.813 | 5.44 |  | 
2 | COLO-824 (breast, adherent) | 0.825 | 19.7 | 0.603 | 0.615 | 0.623 | 0.702 | 0.758 | 5.65 | 0.986 | > 1.02 | 0.987 | > 5 | 0.905 | > 10.2 | 0.839 | 3.5
3 | COR-L95 (small cell lung carcinoma, adherent) | 0.767 | 13.7 | 0.769 | 2.24 | 0.907 | > 5.12 | 0.961 | > 16 | 0.983 | > 1.02 | 0.985 | > 5 | 0.967 | > 10.2 | 0.977 | > 5
4 | COR-L105 (lung adenocarcinoma, adherent) | 0.757 | 13.3 | 0.482 | 0.282 | 0.336 | 0.101 | 0.72 | 4.9 | 0.977 | > 1.02 | 0.808 | 3.31 | 0.858 | > 10.2 |  | 
5 | COR-L279 (small cell lung carcinoma, suspension) | 0.936 | > 32 | 0.724 | 1.27 | 0.379 | 0.155 | 0.914 | > 16 | 0.923 | > 1.02 | 0.985 | > 5 | 0.896 | > 10.2 | 0.989 | > 5
6 | CP50-MEL-B (melanoma, adherent) | 0.957 | > 32 | 0.623 | 0.696 | 0.552 | 0.444 | 0.864 | 13.7 | 0.987 | > 1.02 | 0.381 | 0.148 | 0.986 | > 10.2 | 0.245 | 0.0582
7 | CP66-MEL (melanoma, adherent) | 0.984 | > 32 | 0.658 | 0.936 | 0.782 | 2.46 | 0.866 | > 16 | 0.972 | > 1.02 | 0.312 | 0.0858 | 0.836 | 8.21 | 0.338 | 0.103
8 | CPC-N (small cell lung carcinoma, suspension) | 0.684 | 6.91 | 0.875 | > 5.12 | 0.462 | 0.25 | 0.985 | > 16 | 0.977 | > 1.02 | 0.971 | > 5 | 0.837 | 7.79 | 0.951 | > 5
9 | CS1 (bone, adherent) | 0.796 | 17 | 0.665 | 0.978 | 0.588 | 0.574 | 0.803 | 9.07 | 0.978 | > 1.02 | 0.871 | > 5 | 0.976 | > 10.2 | 0.788 | 2.48
10 | CTV-1 (acute myeloid leukaemia, suspension) | 0.838 | 15.8 | 0.503 | 0.325 | 0.419 | 0.201 | 0.629 | 2.1 | 0.983 | > 1.02 | 0.983 | > 5 | 0.939 | > 10.2 | 0.949 | > 5
11 | CW-2 (large intestine, adherent) | 0.704 | 7.91 | 0.972 | > 5.12 | 0.719 | 1.41 | 0.988 | > 16 | 0.987 | > 1.02 | 0.942 | > 5 | 0.988 | > 10.2 | 0.872 | > 5
12 | Ca9-22 (head and neck, adherent) | 0.865 | 24.9 | 0.532 |  | 0.319 | 0.104 | 0.631 | 2.23 | 0.988 | > 1.02 | 0.709 | 1.15 | 0.897 | > 10.2 | 0.701 | 1.09
13 | Ca-Ski (cervix, adherent) | 0.794 | 16.8 | 0.599 | 0.62 | 0.395 | 0.159 | 0.777 | 7.24 | 0.955 | > 1.02 | 0.917 | > 5 | 0.974 | > 10.2 | 0.863 | > 5
14 | CaR-1 (large intestine, adherent) | 0.916 | > 32 | 0.704 | 1.63 | 0.513 | 0.354 | 0.853 | > 16 | 0.978 | > 1.02 | 0.896 | > 5 | 0.978 | > 10.2 | 0.796 | 3.83
15 | Calu-3 (lung adenocarcinoma, adherent) | 0.983 | > 32 | 0.658 | 0.987 | 0.629 | 0.797 | 0.758 | 6.88 | 0.981 | > 1.02 | 0.837 | 4.64 | 0.85 | > 10.2 | 0.865 | > 5
16 | Calu-6 (lung adenocarcinoma, adherent) | 0.765 | 13.3 | 0.511 | 0.343 | 0.575 | 0.529 | 0.847 | 14.6 | 0.984 | > 1.02 | 0.66 | 0.936 | 0.944 | > 10.2 | 0.833 | 3.91
17 | D-263MG (glioma, adherent) | 0.961 | > 32 | 0.638 | 0.837 | 0.826 | 4.03 | 0.867 | > 16 | 0.983 | > 1.02 | 0.614 | 0.69 | 0.893 | > 10.2 | 0.512 | 0.339
